Measured values taken from PubChem BioAssay AID2101 (National Center for Advancing Translational Sciences (NCATS), 2009).
In all, about 330,000 compounds went through this assay and about 300 (0.091%) were called active. The inconclusive results got no clear call from the source; some entries with a clear call stand among them for comparison. Calls follow the shape of the dose curve; as a rule, active = well fitted inhibition curve with a large enough effect; inconclusive = small, poorly fitted or top-dose-only effect, or effect the other way, or another doubt; inactive = no such curve, though single readings can be large or run the other way. No potency is given beside an inconclusive call; the fits are too rough.

molecular target: Lysosomal acid glucosylceramidase (Homo sapiens) (UniProt P04062); test: qHTS Assay for Inhibitors and Activators of N370S glucocerebrosidase as a Potential Chaperone Treatment of Gaucher Disease; conditions: N370S GC spleen homogenate, 4MU-glucoside fluorescence; series mostly up to 59.4 µM
Potency is read from the fitted curve at half-maximal effect.

Q: How did the Potency turn out when `CC1CCCC(C)N1C(=O)c1cc(-c2cccs2)on1` (stereo not given) was run?
A: The Potency was “inactive”.

Q: With `Cc1c(C)c2c(OCC(=O)N[C@@H](Cc3ccccc3)C(=O)O)cc3c(c2oc1=O)CCC(C)(C)O3` as the compound, how does the Potency read?
A: Its Potency is inconclusive [activator, partial curve].

Q: Which Potency does the source give for `COCCNc1oc(/C=C/c2ccc(F)cc2)nc1S(=O)(=O)c1ccccc1` here?
A: The Potency was inconclusive [activator, single point].

Q: With `Cc1noc(C)c1CSc1nc2ccccc2nc1NS(=O)(=O)c1ccc(Cl)cc1` as the compound, how does the Potency read?
A: The Potency was inconclusive [activator, full curve, poor fit].

Q: With `Cc1cccc(NC(=O)c2cc3c(s2)-c2c(C)cccc2OC3)n1` as the compound, how does the Potency read?
A: Its Potency is inconclusive [activator, partial curve].

Q: For `O=C(CSc1ccc(Cl)cc1)OCC(=O)N1CCN(c2ccccc2)CC1`, which Potency is on record?
A: Its Potency is inconclusive [inhibitor, full curve, poor fit].

Q: How did the Potency turn out when `OC[C@H]1OC(O)(CN2CCOCC2)[C@H](O)[C@@H]1O` (stereo not given in full) was run?
A: Its Potency is “inactive”.

Q: Which Potency does the source give for `Cc1ccc(C(C(=O)NCC2CCCO2)N(C(=O)c2snc(C(N)=O)c2N)c2ccccc2F)o1` (stereo not given) here?
A: The Potency was inconclusive [activator, single point].

Q: With `COc1cccc(/C=C/c2nc(S(=O)(=O)c3ccccc3)c(N(C)C)o2)c1` as the compound, how does the Potency read?
A: The Potency was inconclusive [activator, single point].

Q: With `CC(C)CCn1c(=O)c2sccc2n2c(CCCC(=O)N3CCN(c4ccccn4)CC3)nnc12` as the compound, how does the Potency read?
A: The Potency was inconclusive [inhibitor, partial curve].

Q: `O=C(c1ccccc1)N1N=C(c2ccccc2)CC1c1ccc2nccnc2c1` (stereo not given) was tested. Which Potency did it give?
A: The Potency was inconclusive [activator, partial curve].

Q: How did the Potency turn out when `O=c1oc2cc(O)ccc2cc1-c1ccccc1` was run?
A: The Potency was inconclusive [activator, partial curve].

Q: `COc1ccc2c3c(c(=O)oc2c1OCC(=O)C(C)(C)C)CCCC3` was tested. Which Potency did it give?
A: Its Potency is inconclusive [activator, partial curve].

Q: For `CC(C)C(=O)N1CCc2cc(-c3csc(N)n3)ccc21`, which Potency is on record?
A: The Potency was inconclusive [inhibitor, partial curve].

Q: How did the Potency turn out when `CCOc1ccc(N(CC(=O)Nc2ccc(OC)cc2OC)S(=O)(=O)c2c(C)[nH]c(=O)[nH]c2=O)cc1` was run?
A: Its Potency is inconclusive [inhibitor, partial curve].

Q: How did the Potency turn out when `CN(C)c1cccc(/C=C(\C#N)c2ccccc2)c1` was run?
A: Its Potency is inconclusive [activator, single point].

Q: Which Potency does the source give for `O=C(COC(=O)c1n[nH]c(=O)c2ccccc12)c1ccc(Br)cc1` here?
A: Its Potency is inconclusive [inhibitor, partial curve, poor fit].

Q: With `O=C(CCOc1ccccc1)Nc1ccc(Br)cc1` as the compound, how does the Potency read?
A: Its Potency is “inactive”.

Q: How did the Potency turn out when `CCN1CCN(C(c2cc3cc4c(cc3[nH]c2=O)OCO4)c2nnnn2C(C)(C)CC)CC1` (stereo not given) was run?
A: The Potency was inconclusive [activator, single point].

Q: How did the Potency turn out when `Cc1cc(C)c(C)c(S(=O)(=O)N2CCC(C(=O)Nc3ccncc3)CC2)c1C` was run?
A: Its Potency is inconclusive [inhibitor, single point].

Q: How did the Potency turn out when `O=C(Nc1ccc(F)cc1)N1CCN2C(=O)c3ccccc3C12c1ccccc1` (stereo not given) was run?
A: The Potency was “inactive”.

Q: Which Potency does the source give for `O=C(CP(=O)(c1ccccc1)c1ccccc1)Nc1nc2ccc(Cl)cc2s1` here?
A: Its Potency is inconclusive [activator, partial curve].

Q: How did the Potency turn out when `CCCc1nnc(NC(=O)C(CC)OC(=O)c2cc(C)nc3ccccc23)s1` (stereo not given) was run?
A: Its Potency is inconclusive [activator, partial curve].

Q: With `CCc1ccc(N2CC(C(=O)NCCC3=CCCCC3)CC2=O)cc1` (stereo not given) as the compound, how does the Potency read?
A: The Potency was inconclusive [inhibitor, single point].

Q: With `COc1cc(NC(=O)CN(c2cc(C)cc(C)c2)S(=O)(=O)c2c(C)[nH]c(=O)[nH]c2=O)cc(OC)c1` as the compound, how does the Potency read?
A: Its Potency is inconclusive [inhibitor, partial curve].

Q: How did the Potency turn out when `CSc1ccccc1NC(=O)Nc1ccccc1` was run?
A: Its Potency is “inactive”.

Q: `COc1ccccc1C(=O)Nc1nc(-c2ccc3c(c2)OCCO3)cs1` was tested. Which Potency did it give?
A: The Potency was “inactive”.

Q: How did the Potency turn out when `O=C(N/N=C/c1cc([N+](=O)[O-])c(N2CCOCC2)cc1N1CCOCC1)c1cccnc1` was run?
A: Its Potency is inconclusive [inhibitor, partial curve, poor fit].

Q: With `CC1=CC(c2ccc(Cl)cc2)n2nc(NC(=O)CCC(=O)O)nc2N1` (stereo not given) as the compound, how does the Potency read?
A: The Potency was inconclusive [activator, partial curve].

Q: `c1ccn2c(c1)nc1c2nc2ccccn21` was tested. Which Potency did it give?
A: The Potency was inconclusive [activator, partial curve].

Q: `Cc1[nH]c2ccc(C(=O)OCC(=O)NC3(C#N)CCCCC3)cc2c1C` was tested. Which Potency did it give?
A: The Potency was inconclusive [inhibitor, partial curve, poor fit].

Q: With `O=c1cc(-c2ccccc2Cl)oc2cc(O)cc(O)c12` as the compound, how does the Potency read?
A: The Potency was “inactive”.

Q: With `CCOc1ccc(C2Nc3ccc4ccccc4c3-c3c2c(=O)oc2ccccc32)cc1` (stereo not given) as the compound, how does the Potency read?
A: Its Potency is inconclusive [activator, full curve].

Q: `COc1ccccc1NC(=S)N(CCCN1CCOCC1)Cc1cn(C)c2ccccc12` was tested. Which Potency did it give?
A: The Potency was inconclusive [inhibitor, partial curve].

Q: For `Cc1cc(C)c(-c2nc3ccccc3s2)[nH]1`, which Potency is on record?
A: Its Potency is inconclusive [activator, single point].

Q: How did the Potency turn out when `O=C(CCCN1C(=O)/C(=C\c2cccs2)SC1=S)Nc1cccc(C(=O)O)c1` was run?
A: The Potency was inconclusive [inhibitor, single point].

Q: How did the Potency turn out when `COc1cccc(OCC(=O)NNC(=O)c2ccc3ccccc3c2O)c1` was run?
A: Its Potency is inconclusive [activator, single point].

Q: Which Potency does the source give for `Cn1c2c(c(=O)n(C)c1=O)C(c1ccc(O)cc1)Nc1ccccc1O2` (stereo not given) here?
A: The Potency was inconclusive [inhibitor, partial curve, poor fit].

Q: Which Potency does the source give for `CCCC1O[C@@H]2C[C@H]3[C@@H]4CCC5=CC(=O)C=C[C@]5(C)[C@H]4[C@@H](O)C[C@]3(C)[C@]2(C(=O)CO)O1` (stereo not given in full) here?
A: Its Potency is inconclusive [inhibitor, single point].

Q: With `CCN1CCN(S(=O)(=O)c2ccc(Oc3ccccc3OC)cc2)CC1` as the compound, how does the Potency read?
A: The Potency was “inactive”.
